{"source": "paper PMC4336329", "about": "(PLoS ONE, 2015)", "note": "About 14,000 (4.5%) of roughly 310,000 compounds showed an effect of 50% or more. Effects have a minus sign here. Some of the results follow.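 Also: peak tail current of the secondary pulse compared with the same well before compound.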", "data": [{"biological_target": "human ether-à-go-go-related gene (hERG) potassium channel (human, UniProt Q12809)", "sequence (Q12809 whole entry, looked up)": "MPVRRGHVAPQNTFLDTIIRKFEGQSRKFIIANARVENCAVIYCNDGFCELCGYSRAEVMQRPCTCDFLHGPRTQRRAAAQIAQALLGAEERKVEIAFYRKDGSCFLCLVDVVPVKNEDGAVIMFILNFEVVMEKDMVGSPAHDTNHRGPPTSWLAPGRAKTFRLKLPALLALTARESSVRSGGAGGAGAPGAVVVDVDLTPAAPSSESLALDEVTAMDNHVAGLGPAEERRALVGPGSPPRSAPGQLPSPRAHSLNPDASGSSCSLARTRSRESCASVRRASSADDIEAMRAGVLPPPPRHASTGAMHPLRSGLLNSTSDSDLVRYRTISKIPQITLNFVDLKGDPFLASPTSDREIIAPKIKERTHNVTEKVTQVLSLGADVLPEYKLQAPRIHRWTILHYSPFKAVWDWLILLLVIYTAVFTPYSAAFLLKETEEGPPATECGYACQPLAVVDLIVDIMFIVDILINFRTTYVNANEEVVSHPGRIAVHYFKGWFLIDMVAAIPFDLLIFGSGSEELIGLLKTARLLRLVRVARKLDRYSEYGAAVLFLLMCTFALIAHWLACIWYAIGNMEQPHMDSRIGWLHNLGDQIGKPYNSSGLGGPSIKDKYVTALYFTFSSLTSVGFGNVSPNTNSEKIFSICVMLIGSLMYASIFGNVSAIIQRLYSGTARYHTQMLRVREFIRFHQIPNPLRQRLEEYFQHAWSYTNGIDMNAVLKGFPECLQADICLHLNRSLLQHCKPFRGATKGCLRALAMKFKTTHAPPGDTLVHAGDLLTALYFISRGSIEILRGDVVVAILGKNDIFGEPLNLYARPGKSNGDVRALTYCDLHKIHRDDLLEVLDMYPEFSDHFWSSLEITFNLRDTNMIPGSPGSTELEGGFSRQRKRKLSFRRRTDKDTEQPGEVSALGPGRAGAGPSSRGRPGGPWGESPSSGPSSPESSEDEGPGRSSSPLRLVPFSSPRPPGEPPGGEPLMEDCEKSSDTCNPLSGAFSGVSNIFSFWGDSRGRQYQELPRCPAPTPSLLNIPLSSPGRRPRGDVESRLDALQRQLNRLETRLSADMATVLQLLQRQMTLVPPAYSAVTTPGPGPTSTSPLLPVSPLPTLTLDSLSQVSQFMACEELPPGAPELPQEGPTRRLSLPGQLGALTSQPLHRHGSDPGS", "assay": "primary screen, population patch clamp on CHO cells stably expressing hERG", "units": {"hERG current change (%, negative = inhibition) at 10uM": "%"}, "values": [{"smiles": "CCCOC(=O)Nc1ccc(S(=O)(=O)Nn2cnnc2)cc1", "hERG current change (%, negative = inhibition) at 10uM": 4.46}, {"smiles": "Cc1ccc(C(=O)N2CCN(c3ccc([N+](=O)[O-])c(N4CCOCC4)c3)CC2)cc1", "hERG current change (%, negative = inhibition) at 10uM": -60}, {"smiles": "CN(CC(=O)NCCc1ccc(F)cc1)Cc1ccccc1", "hERG current change (%, negative = inhibition) at 10uM": -2.73}, {"smiles": "COCCNC(=S)N1CCN(Cc2cccc(OC)c2)CC1", "hERG current change (%, negative = inhibition) at 10uM": 25.4}, {"smiles": "COC(=O)CN=Cc1c(O)n(-c2ccc(Cl)cn2)c(=O)c2ccccc12", "hERG current change (%, negative = inhibition) at 10uM": -14.4}, {"smiles": "Cc1ccc(CNC(=O)CSc2nc3n[nH]c(C)c3c(=N)n2-c2cccc(C)c2)cc1", "hERG current change (%, negative = inhibition) at 10uM": -29.2}, {"smiles": "COc1ccc(OC)c(NC(=O)C2COc3ccccc3O2)c1", "note": "(stereo not drawn)", "hERG current change (%, negative = inhibition) at 10uM": 7.46}, {"smiles": "O=C(CCn1c(SCC(=O)c2ccccc2)nc2ccccc2c1=O)NCc1ccc(F)cc1", "hERG current change (%, negative = inhibition) at 10uM": -3.91}, {"smiles": "O=C(COC(=O)CNS(=O)(=O)c1ccc(Br)cc1Cl)NC1CC1", "hERG current change (%, negative = inhibition) at 10uM": -0.681}, {"smiles": "O=C(c1ccc2c(=O)n3c(nc2c1)CCCCC3)N1CCN(c2ccc(F)cc2)CC1", "hERG current change (%, negative = inhibition) at 10uM": -42.1}, {"smiles": "CCN(Cc1cnn(C)c1)C(=O)c1cc(COc2ccc3c(c2)CCCC3)on1", "hERG current change (%, negative = inhibition) at 10uM": -18.4}, {"smiles": "CCC1(C)Nc2ccccc2C(=O)N1O", "note": "(stereo not drawn)", "hERG current change (%, negative = inhibition) at 10uM": 14.4}, {"smiles": "COc1ccccc1/C=C/C=N/NC(=O)CCn1nnc2ccccc21", "hERG current change (%, negative = inhibition) at 10uM": 14.6}, {"smiles": "Cn1cnnc1SCC(=O)Nc1ccc2nc(SCc3ccccc3Cl)sc2c1", "hERG current change (%, negative = inhibition) at 10uM": -8.39}, {"smiles": "CN(C)CCCNC(=S)N(CCO)Cc1cc2cc3c(cc2[nH]c1=O)OCO3", "hERG current change (%, negative = inhibition) at 10uM": 13.4}, {"smiles": "O=C(Cc1cn(-c2ccccc2)nc1-c1ccccc1)N1CCCCC1", "hERG current change (%, negative = inhibition) at 10uM": -18.3}, {"smiles": "CN(CCOc1ccccc1)C(=O)c1cc(COc2c(F)cccc2F)on1", "hERG current change (%, negative = inhibition) at 10uM": 1.44}, {"smiles": "COc1ccc(CCNCc2cc(C)n(-c3ccc(OC)cc3)c2C)cc1.O=C(O)C(=O)O", "hERG current change (%, negative = inhibition) at 10uM": -41.7}, {"smiles": "Cc1ccc(CN2CCC(n3nccc3NC(=O)c3ccc4c(c3)OCO4)CC2)o1", "hERG current change (%, negative = inhibition) at 10uM": -17.2}, {"smiles": "COc1c(C)cc(C(=O)C2CCCN(C(=O)c3cc(C)on3)C2)cc1C", "note": "(stereo not drawn)", "hERG current change (%, negative = inhibition) at 10uM": -16.3}, {"smiles": "CC(C)c1nnc(NC(=O)CCC(=O)N2CCN(C3c4ccccc4-c4ccccc43)CC2)s1", "hERG current change (%, negative = inhibition) at 10uM": 2.78}, {"smiles": "O=C(NCC(=O)N1CCC2(CC1)NCCc1[nH]cnc12)c1ccccc1F", "hERG current change (%, negative = inhibition) at 10uM": 7.1}, {"smiles": "COCCOC(=O)c1[nH]c2c(c1C)C(=O)CC(c1ccc(N(C)C)cc1)C2", "note": "(stereo not drawn)", "hERG current change (%, negative = inhibition) at 10uM": 2.41}, {"smiles": "CCC(=O)Nc1c(-c2ccc(OC)cc2)c(=O)c2ccccc2n1C", "hERG current change (%, negative = inhibition) at 10uM": 9.4}]}]}
